Our source for the binding signal (log2 normalized fluorescence) values is article PMC5515408.

The list shows a part of the results. At the low end of the ranking the order means little.

This experiment has as its system MYC (p64) + MAX (p21), in MYC:MAX. As to the kind of experiment: protein-binding microarray (anti-MAX antibody). The conditions noted are these: PBM: 15 mM Tris-HCl pH 7.5, 100 mM KCl, 0.075% NP40, 7.5 mM beta-mercaptoethanol, 375 ng/ul BSA, 8 ng/ul poly(dA-dT):(dA-dT), 550 ng complex, 60 min, room …; high values mean tight binding; double strand, one strand shown; sequences stand for … in CCGGC…TTAATAGCTAAGATTACTATATCGACG
As to TGAGTTTCTGTA, the binding signal (log2 normalized fluorescence) turned out to be 0.0154.
Turning to TGACAACGCGTA, the binding signal (log2 normalized fluorescence) stood at 0.35.
The result for CGACCTGTGGTA reads 0.234.
The result for TGATGAAACGTA reads 0.0957; that for TGATGTCCAGTA, 0.242; that for TGCTACGTAGTA, 0.0721.
In the case of TGACACATGGTA it was 0.562.
Take TGACACCTGATC: the binding signal (log2 normalized fluorescence) was determined as 0.308.
With TGAGAAACGGTA, the binding signal (log2 normalized fluorescence) is 0.115.
In the case of TGATTACGGGTA it was -0.179; in that of TGAGTTGCTGTA, 0.0091.
In the case of TGATTTGTAGTA, the binding signal (log2 normalized fluorescence) was -0.131.
The result for GGAGTAGTGGCT reads 0.0721; that for TGAACCCATGTA, 0.399.
As to TTACACGTGGTG, the binding signal (log2 normalized fluorescence) came out at 0.827.
On to TGACTGACGGTA, for which the binding signal (log2 normalized fluorescence) was -0.0692.
The result for TGATGACAAGTA reads 0.0742; that for TGACACGCTGTT, 0.626.
In the case of TGAGACGCCGTA, the binding signal (log2 normalized fluorescence) is -0.0908.
With TGAAAGTATGTA, the binding signal (log2 normalized fluorescence) was 0.158.
For the sequence TGACACGTCATA, the binding signal (log2 normalized fluorescence) was 0.419.
In the case of TGAAGTTCGGTA it was -0.0247; in that of TGATGCATAGTA, 0.136.
The result for TGAGCGGCGGTA reads -0.224; that for TGACACGGAGTA, 0.316; that for TGAGTAGGTGTA, -0.181.
On to TGACTAGTAGTA, for which the binding signal (log2 normalized fluorescence) is -0.00827.
Consider AGCCACGTTGTA, for which the binding signal (log2 normalized fluorescence) is 0.643.
For the sequence TGAGGATATGTA, the binding signal (log2 normalized fluorescence) is -0.0677.
In the case of TGAGGCAGAGTA it was 0.068; in that of TGAGTCGTAGTA, -0.161.
The result for TGAATCCTCGTA reads 0.184; that for TGAGCGGGCGTA, 0.0392.
Take TGATCACGGGTA: the binding signal (log2 normalized fluorescence) turned out to be 0.304.
Take TGAGTTACAGTA: the binding signal (log2 normalized fluorescence) was -0.111.
As for TGATTAGTGGTA, the binding signal (log2 normalized fluorescence) turned out to be 0.0286.
In the case of TGATCATTCGTA it was -0.0402; in that of TGACATGTGGTT, 0.359.
With TGATTTTTGGTA, the binding signal (log2 normalized fluorescence) is -0.196.
Regarding GGCCACGTAGTA, the binding signal (log2 normalized fluorescence) turned out to be 0.416.
In the case of TGCCAGGTGGTG it was 0.372; in that of TGATCTAAGGTA, -0.0357; in that of TGACACAAGGGA, 0.189.
As for TGACTATCAGTA, the binding signal (log2 normalized fluorescence) is -0.122.
Take TGACCCAAGGTA: the binding signal (log2 normalized fluorescence) stood at 0.121.
On to TGAGACTCGGTA, for which the binding signal (log2 normalized fluorescence) was -0.116.
The result for TGACTTGCTGTA reads 0.307; that for TGATCCTGAGTA, -0.153; that for GAACATGTGGTA, 0.703.
The result for TGAGAGTTTGTA reads -0.13.
For TGAAAGCAGGTA, the binding signal (log2 normalized fluorescence) is 0.167.
The result for TGAGATATGGTA reads -0.0464; that for ATTACTAGATGA, 0.103; that for TGACACGTGGAG, 0.923.
The result for TGAAAGCCGGTA reads -0.229; that for TGAGGGATGGTA, 0.129; that for TGATATACCGTA, 0.0282.
Consider TGAACTCTAGTA, for which the binding signal (log2 normalized fluorescence) is -0.0217.
In the case of TGACTAAGAGTA it was -0.0177; in that of TGACGCGTCGCA, 0.259.
The result for TGATGGGAGGTA reads 0.178.
The result for TGACACGATGTA reads 0.599.
Regarding TGAGCCAACGTA, the binding signal (log2 normalized fluorescence) was 0.131.
The result for TGGCAAGTGGTC reads 0.192; that for TGAAGGGGGGTA, 0.855; that for TGATACTTTGTA, -0.0795.
On to TGAAACAACGTA, for which the binding signal (log2 normalized fluorescence) worked out at 0.159.
With TGATTGGTCGTA, the binding signal (log2 normalized fluorescence) was -0.12.
Turning to TGACCATACGTA, the binding signal (log2 normalized fluorescence) amounted to 0.332.
As to TGAGAGCGAGTA, the binding signal (log2 normalized fluorescence) was 0.0964.
As for TGACACGAGCTA, the binding signal (log2 normalized fluorescence) was determined as 0.396.
The result for TGATCACTGGTA reads 0.112.
For the sequence TGAGACGACGTA, the binding signal (log2 normalized fluorescence) was determined as 0.0227.
The result for TGAATAGAGGTA reads -0.106.
Take TGAGAACCGGTA: the binding signal (log2 normalized fluorescence) was 0.0466.
Consider TGATGGCTGGTA, for which the binding signal (log2 normalized fluorescence) worked out at 0.114.
The result for TGAAGGGGCGTA reads 0.343; that for CGGGTCTTTCAT, -0.182.
In the case of TGAGAAGACGTA it was 0.105; in that of TGACGCGAGGTA, 0.363.
For the sequence TGCCAAGTGGTA, the binding signal (log2 normalized fluorescence) amounted to 0.213.
In the case of TGATAGGCTGTA it was -0.106; in that of TGAAGACGCGTA, 0.195.
As to TGAACACATGTA, the binding signal (log2 normalized fluorescence) was 0.713.
The result for TGAGGCAGCGTA reads 0.0436; that for TGACTTGAAGTA, 0.0439.
The result for TGATTGACAGTA reads -0.00641; that for GGACACGTTGTT, 0.768; that for TGATCGTGGGTA, 0.255.
The result for GTATACGTGGTA reads 0.202; that for TGAAAGCGAGTA, 0.0715.
As to TGAGTTGAGGTA, the binding signal (log2 normalized fluorescence) stood at 0.0977.
As for TGAACGAGCGTA, the binding signal (log2 normalized fluorescence) came to 0.288.
In the case of TGACAGGCAGTA it was 0.278; in that of TGACATGTAGTA, 0.279; in that of CTTCACGTGGTA, 0.765.
In the case of TGAGCTAGAGTA it was -0.259; in that of TGACTACGAGTA, 0.0572; in that of TTACAGGTGTTA, 0.301.
Regarding TGATACTTAGTA, the binding signal (log2 normalized fluorescence) was -0.0867.
The result for TGATGCGAAGTA reads 0.0196; that for TGACCTATGGTA, 0.108.
In the case of TGAGGTGATGTA it was 0.105; in that of TGACGTTTGGTA, 0.243.
The result for TGATTCTAAGTA reads -0.223; that for TGACAGGTGGTC, 0.417; that for TGATTAGTTGTA, -0.256.
Turning to TGATAGTGTGTA, the binding signal (log2 normalized fluorescence) was 0.25.
The result for TGACGCACCGTA reads 0.332; that for TGATCGATAGTA, -0.0788; that for TGAGGCTTTGTA, -0.121.
In the case of TGAAGGCCAGTA it was 0.0251; in that of TGAGTGCGCGTA, 0.0856; in that of TGCGACGTGGTA, 0.41.
In the case of TGAACTTTGGTA it was 0.0182; in that of TTTCACTTGGTA, -0.0329.
TGAGAAATTGTA: the binding signal (log2 normalized fluorescence) was -0.213.
Consider TGATAGCTGGTA, for which the binding signal (log2 normalized fluorescence) is -0.218.
Turning to TGAGATGCTGTA, the binding signal (log2 normalized fluorescence) is -0.0512.
In the case of TCACATGTGGTA, the binding signal (log2 normalized fluorescence) turned out to be 0.918.
In the case of TGATACCGCGTA it was 0.0701.
For TGATTAGTAGTA, the binding signal (log2 normalized fluorescence) is -0.14.
TGAAAAGACGTA: the binding signal (log2 normalized fluorescence) was determined as 0.0945.
As for TGACACGTCATG, the binding signal (log2 normalized fluorescence) turned out to be 0.5.
In the case of TGACTTACTGTA it was 0.0306.
On to TGATTATGGGTA, for which the binding signal (log2 normalized fluorescence) stood at 0.0425.
As to CACAGGTATCAG, the binding signal (log2 normalized fluorescence) was found to be 0.231.
In the case of TGAGTTTTTGTA it was -0.111; in that of TGATGCATCGTA, 0.281; in that of TGAGAGGTGGTA, 0.18.
In the case of TGAAAGCTAGTA it was -0.271.
In the case of TGAAAACACGTA it was 0.278; in that of TGAAAACGCGTA, 0.285.
Turning to TGACTCTCGGTA, the binding signal (log2 normalized fluorescence) was -0.112.
The result for TGAAAAATGGTA reads 0.094.
The result for TGACCACTTGTA reads 0.271.
The result for TCACACGTCGTA reads 0.506; that for TGAAATACAGTA, -0.132.
